# Assay results from publication PMC4336329 (PLoS ONE, 2015).
# The whole screen tested about 310,000 compounds, of which about 2,200 (0.71%) showed an effect of 50% or more. Effects have a minus sign here. This is one part of the list.
# Target: human ether-à-go-go-related gene (hERG) potassium channel (human, UniProt Q12809)
# Assay: primary screen, population patch clamp on CHO cells stably expressing hERG
# human ether-à-go-go-related gene (hERG) potassium channel, sequence (Q12809 whole entry, looked up): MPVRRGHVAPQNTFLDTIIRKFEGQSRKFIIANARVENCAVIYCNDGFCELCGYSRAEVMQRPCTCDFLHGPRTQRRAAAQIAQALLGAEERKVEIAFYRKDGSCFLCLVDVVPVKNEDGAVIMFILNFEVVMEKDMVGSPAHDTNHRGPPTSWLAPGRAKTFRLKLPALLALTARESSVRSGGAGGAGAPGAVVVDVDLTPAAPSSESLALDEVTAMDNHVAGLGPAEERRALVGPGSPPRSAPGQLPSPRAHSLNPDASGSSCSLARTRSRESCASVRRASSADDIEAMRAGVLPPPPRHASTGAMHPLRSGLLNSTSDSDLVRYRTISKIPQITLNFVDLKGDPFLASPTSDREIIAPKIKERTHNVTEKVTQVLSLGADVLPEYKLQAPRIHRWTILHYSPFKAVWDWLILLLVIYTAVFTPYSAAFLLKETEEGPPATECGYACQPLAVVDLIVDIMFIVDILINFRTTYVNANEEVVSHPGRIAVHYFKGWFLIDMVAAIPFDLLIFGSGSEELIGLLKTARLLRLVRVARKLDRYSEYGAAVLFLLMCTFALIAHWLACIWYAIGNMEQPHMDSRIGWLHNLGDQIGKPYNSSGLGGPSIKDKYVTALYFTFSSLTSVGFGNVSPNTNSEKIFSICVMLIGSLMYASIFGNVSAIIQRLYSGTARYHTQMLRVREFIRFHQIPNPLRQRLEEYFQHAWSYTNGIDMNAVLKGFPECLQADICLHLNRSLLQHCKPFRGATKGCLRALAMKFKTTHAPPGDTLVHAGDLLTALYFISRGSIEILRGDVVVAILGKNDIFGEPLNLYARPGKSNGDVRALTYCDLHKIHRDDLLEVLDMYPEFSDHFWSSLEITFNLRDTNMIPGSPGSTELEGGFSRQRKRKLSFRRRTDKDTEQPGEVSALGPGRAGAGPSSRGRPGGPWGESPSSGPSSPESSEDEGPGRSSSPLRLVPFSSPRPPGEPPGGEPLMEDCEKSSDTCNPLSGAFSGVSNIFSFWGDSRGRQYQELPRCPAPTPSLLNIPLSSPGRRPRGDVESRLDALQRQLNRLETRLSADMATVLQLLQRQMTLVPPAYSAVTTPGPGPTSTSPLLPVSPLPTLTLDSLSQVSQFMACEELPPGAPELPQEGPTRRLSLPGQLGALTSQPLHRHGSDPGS
row,Compound,"hERG current change (%, negative = inhibition) at 1uM"
1,Cc1nnc(SCCCn2c(N3CCN(c4ccccc4)CC3)nc3c2c(=O)[nH]c(=O)n3C)s1,-0.698%
2,CC(C)CN(C)Cc1c(C(=O)N2CCc3ccccc3C2)nc2ccc(Cl)cn12,-0.0627%
3,COc1ccccc1CN(CC(=O)NCc1ccc(F)cc1)C(=O)c1csnn1,1.78%
4,CNS(=O)(=O)c1cccc(C(=O)OCC(=O)C23CC4CC(CC(C4)C2)C3)c1,6.16%
5,O=C(NNC(=O)c1cc2ccccc2cc1O)Nc1ccc(Br)cc1,8.9%
6,COc1ccc(NC(=O)/C(C#N)=C\c2ccc(N3CCOCC3)o2)cc1,17.2%
7,CCCCCCNc1cc2n(c(=O)n1)CCc1cc(OC)c(OC)cc1-2,2.03%
8,CCCCCCC(Cl)(Cn1ccnc1)c1ccccc1.O=[N+]([O-])O (stereo not drawn),1.75%
9,CCC(Cc1ccccc1)NC(=O)Cn1cccc1C(=O)c1ccccc1 (stereo not drawn),9.63%
10,Cc1ccc2c(c1)NC(=O)C(CC(=O)N(C)Cc1ccccc1)O2 (stereo not drawn),7.42%
11,N#C/C(=C(/O)c1cccs1)c1nc2ccccc2[nH]1,16.4%
12,CCc1ccc(OCCOC(=O)Nc2ccccc2)cc1,12.2%
13,CN(c1ccccc1)c1nc(N)c([N+](=O)[O-])c(NC2CCCCC2)n1,13.7%
14,CCOC(=O)c1cc2c(N)c(C(=O)c3cc(C#N)c(SC)nc3C)sc2nc1C,-0.0773%
15,CC(C)(C)N=Cc1c(O)ccc2oc3c(c12)CCCC3,28.6%
16,CCC(=O)N(CCc1ccccc1C)Cc1cc2cc3c(cc2[nH]c1=O)OCO3,2.78%
17,Clc1ccccc1Cn1nnc2c(N3CCCC3)ncnc21,8.3%
18,O=C(Cn1cnc2ccccc2c1=O)Nc1cccc(-c2nnc3n2CCCCC3)c1,10.7%
19,O=C(N(c1ccccc1)c1ccccc1)n1ccnc1,-12.5%
20,COc1cccc(NC(=O)CS(=O)(=O)c2cn(CC(=O)N3CCOCC3)c3ccccc23)c1,9.9%
21,Cc1ccc(Nc2nc3ccccc3c(=O)s2)cc1C,11%
22,COc1ccc(/C=C2/C(=O)N(c3nc4ccccc4s3)N=C2CSc2ccc(Cl)cc2)cc1,6.32%
23,O=C(O)CCN1CCN(S(=O)(=O)c2ccc3ccccc3c2)CC1,14.6%

row,Compound,"hERG current change (%, negative = inhibition) at 1uM"
1,CC(=O)NC1(C(F)(F)F)N=C(c2ccccc2)NC1=O (stereo not drawn),4.98%
2,COc1ccc(C)cc1S(=O)(=O)N(C)CC(=O)Nc1ccccc1,9.02%
3,CCNc1ccc(Br)cc(C(=O)/C=C/c2ccccc2Cl)c1=O,0.741%
4,O=C(CSc1ncccc1-c1nc2ccccc2[nH]1)NC1CC1,-0.103%
5,c1ccc(C(c2ccccc2)c2noc(CN3CCN(C4CCCC4)CC3)n2)cc1,0.0934%
6,CP(C)(=O)CCC(=O)O,10%
7,CC(=O)NC(=S)Nc1cc(C(F)(F)F)ccc1N1CCOCC1,-12.6%
8,Cc1ccc(Sc2cc(C)nc(-c3ccccn3)n2)cc1,12.1%
9,Cc1nn(-c2ccccc2)c(Cl)c1C(=O)OC(C)C(=O)Nc1ccc2c(c1)OCO2 (stereo not drawn),8.84%
10,Cc1ccc2c(c1)sc(-c1ccc(N(C)C)cc1)[n+]2C.[I-],-18%
11,CCc1cccc(C)c1NC(=O)Nc1c(Br)cnn1C,14%
12,O=C(CSc1nnc(C2CC2)n1CC1CCCO1)Nc1ccccc1Cl (stereo not drawn),14.3%
13,CCc1nnc(NC(=O)c2cccc(S(=O)(=O)N3CCCCC3)c2)s1,16.6%
14,O=c1[nH]c2cc3c(cc2cc1CN(CCN1CCOCC1)C(=S)NCC1CCCO1)OCO3 (stereo not drawn),-0.702%
15,O=C(O)CNC(=O)c1ccc(NC(=O)/C(=C/c2ccccc2)NC(=O)c2ccccc2Br)cc1,16.1%
16,COc1ccc(N2CCN(C(=O)c3csc4ccccc34)CC2)cc1,-0.689%
17,O=C(CSc1nc2ccccc2c2c1CCCC2)N1CCOCC1,8.2%
18,Cc1ccc(CNC(=O)c2nnn(CC(=O)Nc3cc(C)cc(C)c3)c2N)cc1,5.99%
19,COc1ccc(C2=NS(=O)(=O)N(C)C(C(=O)Nc3ccc(C)cc3)=C2)cc1,8.9%
20,CCCN(CC1COc2ccccc2O1)C(=S)Nc1ccc(C)cc1 (stereo not drawn),12.1%
21,CC(C)c1nc(=S)c2ccccc2[nH]1,-0.563%
22,Cc1ccc(Cn2nnc3c(=O)[nH]c(C(=O)NCc4ccco4)nc32)cc1,-5.8%
